The whole screen tested about 310,000 compounds, of which about 14,000 (4.5%) showed an effect of 50% or more. The effect is printed as a negative number. Some of the results follow.
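Note: peak tail current of the secondary pulse compared with the same well before compound.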

In the test the target is human ether-à-go-go-related gene (hERG) potassium channel (human, UniProt Q12809). The experiment in a line: primary screen, population patch clamp on CHO cells stably expressing hERG.
Sequence of human ether-à-go-go-related gene (hERG) potassium channel (Q12809 whole entry, looked up): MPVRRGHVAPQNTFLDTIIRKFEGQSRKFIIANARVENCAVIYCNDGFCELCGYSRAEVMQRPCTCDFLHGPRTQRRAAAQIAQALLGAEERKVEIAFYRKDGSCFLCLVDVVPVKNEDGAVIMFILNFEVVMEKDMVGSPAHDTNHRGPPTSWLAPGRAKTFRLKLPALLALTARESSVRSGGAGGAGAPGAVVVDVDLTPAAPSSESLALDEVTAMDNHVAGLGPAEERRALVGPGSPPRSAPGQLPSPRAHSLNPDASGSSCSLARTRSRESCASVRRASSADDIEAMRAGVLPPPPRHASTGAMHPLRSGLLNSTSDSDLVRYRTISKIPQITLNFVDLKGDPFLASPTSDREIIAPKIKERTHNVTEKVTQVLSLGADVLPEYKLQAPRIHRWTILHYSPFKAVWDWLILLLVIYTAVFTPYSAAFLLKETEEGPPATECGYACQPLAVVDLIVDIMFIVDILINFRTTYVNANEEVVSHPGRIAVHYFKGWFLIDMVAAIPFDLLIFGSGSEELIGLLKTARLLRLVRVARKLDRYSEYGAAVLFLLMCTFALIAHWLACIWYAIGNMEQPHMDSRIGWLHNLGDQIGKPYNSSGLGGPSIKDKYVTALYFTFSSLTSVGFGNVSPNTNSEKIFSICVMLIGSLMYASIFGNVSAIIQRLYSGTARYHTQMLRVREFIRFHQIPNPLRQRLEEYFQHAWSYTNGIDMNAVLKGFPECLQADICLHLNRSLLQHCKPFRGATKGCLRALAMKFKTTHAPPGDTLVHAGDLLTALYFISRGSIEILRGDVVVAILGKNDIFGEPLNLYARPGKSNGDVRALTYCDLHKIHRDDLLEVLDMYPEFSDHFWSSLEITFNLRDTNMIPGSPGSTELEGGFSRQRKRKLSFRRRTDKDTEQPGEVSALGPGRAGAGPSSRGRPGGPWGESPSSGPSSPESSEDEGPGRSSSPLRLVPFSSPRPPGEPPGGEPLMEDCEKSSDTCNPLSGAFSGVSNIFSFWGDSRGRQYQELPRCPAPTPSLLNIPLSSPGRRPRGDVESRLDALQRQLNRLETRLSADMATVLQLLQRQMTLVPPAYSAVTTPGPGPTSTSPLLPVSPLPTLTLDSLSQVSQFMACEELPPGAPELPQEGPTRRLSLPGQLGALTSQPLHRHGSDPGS
In the case of `S=C(N/N=C/c1ccc2ncccc2c1)Nc1cccnc1`, the “hERG current change (%, negative = inhibition) at 10uM” value amounted to 8.66%. The figure for `Cc1ccc(NC(=O)C2CC(=O)N(c3ccc4c(c3)OCCO4)C2)nc1` (centres unmarked) is -6.36%. The figure for `CC1(C)C(C=C(Cl)Cl)C1C(=O)N1CCN(c2ccccc2)CC1` (centres unmarked) is -37%; for `Cc1csc(Nc2ccc(C(=O)O)cc2)n1` it is 6.71%.

With `COc1ccc(CCN(C)C2CCCN(C(=O)Cn3cnnn3)C2)cc1OC` (centres unmarked), the “hERG current change (%, negative = inhibition) at 10uM” value is 10.2%. The same measure for `O=C(c1ccc(Br)c([N+](=O)[O-])c1)N1CCN(Cc2ccccc2)CC1`: -61.2%; for `CCOC(=O)C1C(=O)OC2(CCOC(C)(C)C2)C1C(=O)OCC` (centres unmarked): 5.89%; for `CCCn1c(C(C)Nc2nc(-c3ccc(C)cc3)cs2)nc2ccccc21` (centres unmarked): 19.7%. On to `Fc1cccc(/C=N/Nc2ccccn2)c1`, for which the “hERG current change (%, negative = inhibition) at 10uM” value was determined as 21.6%. As for `CN(C)C(=O)c1ccc(-n2nc(C(F)(F)F)c3c2CCCC3)cc1`, the “hERG current change (%, negative = inhibition) at 10uM” value was -8.71%. The same measure for `COc1ccccc1C(=O)Nn1c(-c2cccs2)nc2ccccc2c1=O`: -2.66%; for `Cc1csc(SCC(=O)Nc2cc([N+](=O)[O-])ccc2F)n1`: -12.4%; for `CCN(CC)CCCNC(=O)c1[nH]c(C)c(C(=O)NC2CCCCC2)c1C`: 12.9%. Regarding `CCCCn1c(O)c(N=NC(=O)c2ccco2)c2ccccc21`, the “hERG current change (%, negative = inhibition) at 10uM” value is -14.3%. The same measure for `COc1cc2c(cc1NC(=O)CSc1nnc(COc3ccc(Cl)cc3)n1C)oc1ccccc12`: 6.05%; for `CC(=O)c1cnc(-c2ccccc2Cl)s1`: 15.5%; for `O=C(CN1CCN(Cc2ccccc2)CC1)Nc1ccccc1-c1ccccc1`: -89.8%. For `O=C(NCCOc1ccccc1)C1CCC(=O)N(CCc2ccc(Cl)cc2)C1` (centres unmarked), the “hERG current change (%, negative = inhibition) at 10uM” value is given as -88.2%. Turning to `COc1ccc(C(=O)Nc2nncs2)cc1S(=O)(=O)N1CCOCC1`, the “hERG current change (%, negative = inhibition) at 10uM” value is 15.1%. The figure for `CC(=O)c1ccc(NC(=O)N2CCc3ccccc3C2)cc1` is -0.383%; for `CNC(=O)CSc1nnc(SCCC(=O)O)s1` it is 8.17%; for `Cc1ccc(CN2CCN(CCCn3cccn3)CC2CCO)cc1` (centres unmarked) it is -66.9%. For `COc1ccc(CCNC(=O)CC2Nc3cc(C)c(C)cc3NC2=O)cc1OC` (centres unmarked), the “hERG current change (%, negative = inhibition) at 10uM” value worked out at 4.98%.

For `CN(CC(=O)Nc1ccc2c(c1)OCCO2)Cc1nc2ccccc2c(=O)[nH]1`, the “hERG current change (%, negative = inhibition) at 10uM” value is given as -1.08%. `O=C(CCCc1ccccc1)NCCN1CCOCC1`: the “hERG current change (%, negative = inhibition) at 10uM” value is -4.9%. For `COc1ccccc1CNc1nc(S(=O)(=O)c2ccccc2)c(Cl)s1`, the “hERG current change (%, negative = inhibition) at 10uM” value was -0.147%. The same measure for `CCOC(=O)c1sc(NC(=O)c2ccc(C)o2)nc1C`: -5.35%; for `O=C(CNc1ccc2c(c1)OCO2)N/N=C\c1cn(Cc2ccccc2)c2ccccc12`: 15.9%; for `O=C(NCc1cccnc1)c1ccc(S(=O)(=O)N2CCOCC2)cc1`: -8.02%. The same measure for `Cc1c(-c2cccs2)[n+](=O)c2c(n1[O-])CCCC2`: 2.34%; for `O=C(N/N=C/c1c(-c2ccccc2)[nH]c2ccccc12)c1cccnc1`: -33.2%. For `S=c1[nH]ncn1/N=C/c1ccccc1`, the “hERG current change (%, negative = inhibition) at 10uM” value came out at 16.8%. The same measure for `O=C(OCn1nnc2ccccc2c1=O)c1ccc(O)cc1`: -24.5%; for `Cc1ccc(N2C(=O)/C(=C/N3CCN(C(=O)c4ccco4)CC3)C(=O)NC2=S)cc1C`: 18.3%; for `COC(=O)c1cc2c(ccn2-c2ccc(F)cc2)n1Cc1cccc(OC)c1`: 0.0373%. The figure for `N=C1/C(=C/c2coc3ccccc3c2=O)C(=O)N=C2SC(c3ccco3)=NN12` is 12.8%; for `CCC(C)(CC(=O)N(C)CCC#N)c1ccccc1` (centres unmarked) it is -0.111%. The same measure for `Cc1cccc(OCCn2c(=O)sc3ccccc32)c1`: -3.38%; for `CN(C)CCCN(C(=O)c1ccc2c(c1)CCCC2)c1nc2cc3c(cc2s1)OCO3.Cl`: -71%. Consider `CN(Cc1cccs1)C(=O)/C=C/c1ccccc1[N+](=O)[O-]`, for which the “hERG current change (%, negative = inhibition) at 10uM” value is -4.36%. Consider `CN1CCc2c(sc3c2C(=O)NC(c2cccc(OC(=O)c4cccs4)c2)N3)C1` (centres unmarked), for which the “hERG current change (%, negative = inhibition) at 10uM” value is -4.38%. Take `COc1ccccc1C(CNC(=O)c1cccc(S(=O)(=O)NCc2ccccc2)c1)N(C)C` (centres unmarked): the “hERG current change (%, negative = inhibition) at 10uM” value is -39.1%. The figure for `COc1cccc(-n2c(=S)sc3c(=O)n(-c4ccccc4C)c(SCC(=O)O)nc32)c1` is 16.5%.

Consider `CCOC(=O)c1c(C)[nH]c(C)c1C(=O)CSc1nnc(N)s1`, for which the “hERG current change (%, negative = inhibition) at 10uM” value is reported as 9.9%.

Source of the values: article PMC4336329 (PLoS ONE, 2015).
